The list shows a part of the results. At the low end of the ranking the order means little.
Tested on: T1, GST-NbGlk1(82-244)
T1 sequence: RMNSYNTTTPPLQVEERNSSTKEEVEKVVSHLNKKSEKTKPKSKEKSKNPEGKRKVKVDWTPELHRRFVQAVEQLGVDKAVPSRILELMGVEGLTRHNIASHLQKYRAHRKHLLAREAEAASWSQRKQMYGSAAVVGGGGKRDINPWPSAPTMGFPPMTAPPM
Assay: protein-binding microarray;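 further: rank-based score ranging −0.5 to +0.5 with E above 0.45 taken as significant binding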
Conditions: NbGlk1 is a Golden2-like transcription factor of Nicotiana benthamiana; high values mean tight binding; most listed sequences are background and not binding sites; double strand, one strand shown

Sequence	binding signal
AATCGGCA	0.245 E-score
AGCCTTGG	-0.318 E-score
ACCGAGTA	0.0565 E-score
ACGGTGAA	-0.00403 E-score
CACACAGA	0.201 E-score
AAGCTTCT	-0.0531 E-score
AGAGGACA	-0.0966 E-score
CACATGAC	0.0194 E-score
ACGAAAAG	-0.0403 E-score
ATTCCAAC	0.214 E-score
AAGGGTCG	-0.197 E-score
AAGTTGCA	-0.0633 E-score
ACAGGGAG	-0.221 E-score
AAAGAACT	0.0138 E-score
ATACTCCA	0.208 E-score
AGTTATTA	0.0621 E-score
CAATCTGA	0.375 E-score
ATCTGTAG	0.3 E-score
ACGGGGTC	-0.201 E-score
CACGACAA	-0.0374 E-score
AGTACAGC	-0.00849 E-score
ACTATAAT	0.191 E-score
AGTGACCA	-0.067 E-score
AGGAGGAT	0.244 E-score
AGATCCAC	0.287 E-score

Sequence	binding signal
AAGCGACC	-0.318 E-score
ACTACGGG	-0.135 E-score
AAACGATC	0.167 E-score
AACCATCA	-0.0776 E-score
AACCAGGC	-0.199 E-score
AGCTATAG	-0.139 E-score
ATCGCGAG	0.33 E-score
AATGGTAA	0.102 E-score
AGCGTTAC	0.0495 E-score
AGCGCCTC	-0.25 E-score
AGCGTCCC	-0.28 E-score
AGATTAGG	0.169 E-score
ACCTGCAG	-0.0841 E-score
ATAGTGTA	0.12 E-score
AATAAAAG	0.0679 E-score
ATTAACCC	-0.108 E-score
AGCACGAC	-0.119 E-score
AATTACTG	0.0348 E-score
CAAGACGG	-0.118 E-score
AGCAATGC	-0.0664 E-score
ATCAACCC	-0.0287 E-score
ACGGGGGG	-0.1 E-score
AAGGCAAT	0.139 E-score
AGAACTCT	-0.0898 E-score
CAGCGCGG	-0.0304 E-score

Sequence	binding signal
ACCCAGAA	0.111 E-score
AACGTATA	0.225 E-score
ACGGAAGA	-0.00243 E-score
AGGCGAAG	-0.114 E-score
AACCTCCC	-0.179 E-score
ACCCTGCG	-0.16 E-score
AAACGGAC	-0.0913 E-score
AGGAGCAC	-0.24 E-score
CAGAAATG	-0.00514 E-score
ACCCGGCT	-0.191 E-score
ATGCAGGC	-0.104 E-score
AGCCATTG	-0.13 E-score
ACTTGCCT	-0.0243 E-score
ATCTGAAG	0.222 E-score
ATGCCGGC	-0.0516 E-score
AACCGCAC	-0.0605 E-score
AATAAATT	0.226 E-score
AAAATAGC	0.0386 E-score
AATTCACG	0.088 E-score
AGGGGGAG	-0.107 E-score
ATGATTCC	0.306 E-score
ACCCCCTG	-0.359 E-score
AATAAGTA	0.128 E-score
CACTGGCA	-0.243 E-score
AGAGCTAC	-0.114 E-score

Sequence	binding signal
AGATGCAC	-0.149 E-score
AGTCTAGA	0.0088 E-score
AGGCGCGG	-0.0782 E-score
CACTTGGG	-0.15 E-score
CAGAAAAA	0.00255 E-score
ATCTTATA	0.342 E-score
AAAAGGCA	-0.186 E-score
AAAGCCTT	-0.138 E-score
AAAATGCC	-0.104 E-score
AATTTACG	0.176 E-score
ATATCTCG	0.435 E-score
ACAACTTA	0.0393 E-score
AACTTCTC	0.115 E-score
AAATGACG	0.0381 E-score
ACTAGTGG	-0.0537 E-score
AGGTACCA	-0.028 E-score
AACGCAAC	0.128 E-score
AGCTGAGG	-0.28 E-score
ACCGCGGC	-0.192 E-score
AGCTACAG	-0.126 E-score
ATCTTTCC	0.218 E-score
AATATCCT	0.389 E-score
ACGAATGA	0.144 E-score
AGCTGGAT	0.0562 E-score
AATCTTAG	0.393 E-score

Sequence	binding signal
AAATCCTA	0.417 E-score
ATCTACCG	0.225 E-score
AGCGCGAC	-0.0554 E-score
CAGAAAGG	-0.202 E-score
CACCACTC	-0.0259 E-score
ATGGAGTA	-0.0794 E-score
AGTCCTGG	-0.179 E-score
ATCAGCGA	0.229 E-score
ACGTGAAA	0.166 E-score
ACAATAAA	0.0947 E-score
ATGACAAC	-0.0555 E-score
ATTTCTCC	0.242 E-score
CAAAGCGA	0.0538 E-score
ATGCTTGA	-0.0677 E-score
AACCACAG	-0.199 E-score
ACAAGAAT	0.273 E-score
AGCAAGCC	-0.176 E-score
AGGATATG	0.301 E-score
AAGAGACA	-0.0701 E-score
ACCCCCAA	-0.191 E-score
ACGCGTAT	0.211 E-score
ATTCTAGG	0.131 E-score
ATCCTGAA	0.165 E-score
CACTATAA	0.0227 E-score
ATGGTCGG	-0.194 E-score

Sequence	binding signal
ATGCCGCA	0.0127 E-score
AGATTCGA	0.389 E-score
AGCGCCAA	-0.114 E-score
ATACACAT	0.17 E-score
CACCCGTG	-0.219 E-score
CAATAACG	-0.0392 E-score
CACCTTGA	-0.152 E-score
CAGAACCG	-0.0407 E-score
ACCGTCAC	-0.265 E-score
AATAGACC	-0.219 E-score
ACTGACTA	-0.139 E-score
ACACCCTC	-0.0916 E-score
ACACTTAA	0.0457 E-score
ATCTCAGA	0.303 E-score
ACTACCAC	-0.0504 E-score
ATGCACAC	-0.0981 E-score
ATGCGGAC	-0.158 E-score
AACCCAAT	0.000357 E-score
AGCTAATG	-0.119 E-score
ATATCGGA	0.369 E-score
AGTTCCAT	-0.109 E-score
ACCCCCCC	-0.353 E-score
AGCAACCC	-0.142 E-score
AAAGTGTG	-0.114 E-score
AGCTTGCC	-0.311 E-score

Sequence	binding signal
AGCGATAA	-0.0738 E-score
ATGACATG	0.0132 E-score
ATACCATA	0.179 E-score
AGTTCGAC	-0.151 E-score
ATTGCGAG	0.24 E-score
AGGGTGAA	-0.113 E-score
AATACGCC	0.0613 E-score
AGCCAGCT	-0.327 E-score
CACTTTGG	-0.063 E-score
AATTCTTG	0.133 E-score
ACAATAGT	0.118 E-score
AGACCGCT	-0.192 E-score
CACATTTC	0.0379 E-score
AAGTGCCT	-0.262 E-score
AGTTGAAA	0.153 E-score
AGCCGCGC	-0.308 E-score
AAGACAGC	-0.0552 E-score
AGGGCTGG	-0.193 E-score
AGCATGAT	-0.00221 E-score
AGTTGCCG	-0.19 E-score
ACATACCG	-0.0232 E-score
ACCCAGGC	-0.209 E-score
